Source: paper PMC4336329 (PLoS ONE, 2015)
Screen size: about 310,000 compounds; about 14,000 (4.5%) showed an effect of 50% or more. The effect is printed as a negative number. Some of the results follow.

Each compound was assayed against human ether-à-go-go-related gene (hERG) potassium channel (human, UniProt Q12809) (assay: primary screen, population patch clamp on CHO cells stably expressing hERG).
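Also: peak tail current of the secondary pulse compared with the same well before compound.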

Sequence of human ether-à-go-go-related gene (hERG) potassium channel (Q12809 whole entry, looked up): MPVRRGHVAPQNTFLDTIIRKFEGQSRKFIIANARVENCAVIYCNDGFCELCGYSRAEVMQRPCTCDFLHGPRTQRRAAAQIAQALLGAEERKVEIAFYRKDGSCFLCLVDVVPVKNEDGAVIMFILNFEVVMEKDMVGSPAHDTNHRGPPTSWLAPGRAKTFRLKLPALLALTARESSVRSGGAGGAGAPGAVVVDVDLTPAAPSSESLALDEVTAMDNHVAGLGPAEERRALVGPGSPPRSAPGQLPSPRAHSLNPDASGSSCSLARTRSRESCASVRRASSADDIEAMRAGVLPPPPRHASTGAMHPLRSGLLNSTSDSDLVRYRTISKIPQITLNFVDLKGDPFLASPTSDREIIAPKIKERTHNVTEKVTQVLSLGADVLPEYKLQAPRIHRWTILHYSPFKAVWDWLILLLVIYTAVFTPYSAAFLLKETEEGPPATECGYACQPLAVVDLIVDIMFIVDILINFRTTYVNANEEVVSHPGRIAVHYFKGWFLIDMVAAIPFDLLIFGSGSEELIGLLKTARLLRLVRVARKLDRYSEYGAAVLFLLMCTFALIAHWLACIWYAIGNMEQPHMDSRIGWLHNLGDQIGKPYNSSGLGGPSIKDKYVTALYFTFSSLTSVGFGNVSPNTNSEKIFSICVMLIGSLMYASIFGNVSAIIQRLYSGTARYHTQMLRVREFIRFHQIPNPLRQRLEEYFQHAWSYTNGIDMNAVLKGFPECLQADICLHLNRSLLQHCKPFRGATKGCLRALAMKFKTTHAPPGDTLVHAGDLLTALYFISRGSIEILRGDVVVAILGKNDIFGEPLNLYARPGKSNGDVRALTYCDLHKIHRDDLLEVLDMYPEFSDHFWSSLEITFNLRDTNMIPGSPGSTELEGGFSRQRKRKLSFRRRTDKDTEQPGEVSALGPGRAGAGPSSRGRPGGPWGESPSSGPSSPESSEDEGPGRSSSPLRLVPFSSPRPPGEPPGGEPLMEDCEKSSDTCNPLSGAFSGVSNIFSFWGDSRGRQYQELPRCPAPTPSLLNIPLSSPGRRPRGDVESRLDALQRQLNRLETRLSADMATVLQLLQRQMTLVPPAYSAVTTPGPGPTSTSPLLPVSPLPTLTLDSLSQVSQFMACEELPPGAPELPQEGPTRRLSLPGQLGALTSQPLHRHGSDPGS

SMILES	hERG current change (%, negative = inhibition) at 10uM
CCOC(=O)c1c(C(F)(F)C(F)(F)C(F)(F)C(F)(F)F)n[nH]c1C	-1.89%
Fc1cccc(Nc2nc3ccccc3n3cnnc23)c1	4.55%
COc1ccc(Cl)cc1NC(=O)CN(C)C(=O)COc1ccccc1F	-21.6%
O=C(CN1C(=O)NC2(CCCCCC2)C1=O)NC1CC1	12.5%
CCOC(=O)c1c(NC(=O)COC(=O)c2ccccn2)sc(C(=O)N(C)C)c1C	4.44%
CC(=O)N1c2ccc(S(=O)(=O)N3CCCC(C(=O)Nc4cc(C)cc(C)c4)C3)cc2CC1C (centres unmarked)	6.85%
CCOc1ccc(CN2CCN(Cc3[nH]c4ccc(OC)cc4c3C)CC2CCO)cc1 (centres unmarked)	-77.9%
O=C(CNC(=O)c1ccccc1Br)N/N=C/c1ccco1	16.3%
CCOC(=O)Cn1nc(C)n(-c2ccc(Cl)cc2)c1=O	10.4%
COc1ccc(OC)c(NC(=O)CN(Cc2ccc(Cl)cc2)S(C)(=O)=O)c1	-28.3%
CC(=O)NC(CCS(C)(=O)=O)C(=O)Nc1ccc(C)c(F)c1 (centres unmarked)	-12.7%
CCCCOc1ccc(CSc2n[nH]c(C)n2)cc1	-1.41%
COc1ccc(Br)cc1C(=O)Nc1cccc(C)c1C	-7.74%
COc1cc(OC)cc(C(=O)NCC(=O)OCC(=O)c2ccc3c(c2)-c2ccccc2C3)c1	3.82%
Cc1cc(C(=O)CN2C(=O)NC3(CCCCC3)C2=O)c(C)n1Cc1ccco1	-6.05%
C#CCOC(=O)C[N+](C)(C)CC=C.[Cl-]	15.5%
N#CC1=C(N)Oc2c(c(=O)oc3ccccc23)C1c1ccncc1 (centres unmarked)	-13.5%
CC(C)(C)c1ccc(C(=O)NCCC(=O)N2CCCC2)cc1	16.4%
Cc1c(C(=O)Nc2ccc(N3CCOCC3)cc2)cccc1[N+](=O)[O-]	8.67%
CC(CNC(=O)CCn1ccc2cc(S(=O)(=O)N3CCCC3)ccc21)c1ccccc1 (centres unmarked)	-27.3%
Cc1ccccc1NC1=C(Cl)C(=O)OC1OC(=O)c1ccccc1C (centres unmarked)	-6.95%
O=C(c1ccc2[nH]c(=O)c(=O)[nH]c2c1)N1CCN(Cc2ccccc2)CC1	17.1%
CC(C)(C)C(=O)COC(=O)c1ccc(N)c([N+](=O)[O-])c1	3.04%

SMILES	hERG current change (%, negative = inhibition) at 10uM
CC(=O)c1c(C)[nH]c(-c2ccccc2)nc1=S	10.5%
COC(=O)c1sc(N)c(C(=O)OC)c1CSc1nc2sc3c(c2c(=O)n1C)CCC3	-3.07%
CCOc1ccc(S(=O)(=O)Nc2ccc3c(c2)n(C)c(=O)n3C)cc1	11.5%
CNC(=S)Nn1cnc2ccccc21	-4%
CCCCOCCCNC(=O)c1ccc2c(c1)OCO2	-9.67%
CCCCn1c(N)c(N(CCOC)C(=O)COC(=O)C(C)Oc2ccc(Cl)cc2)c(=O)[nH]c1=O (centres unmarked)	11.2%
Cc1cc(C)cc(NC(=O)N2CCN(Cc3ccc4c(c3)OCO4)CC2)c1	-59%
OCC[C@H]1C[C@H](O)[C@@H](O)[C@]2(OCc3ccccc32)O1	11.9%
COc1ccc2c(c1)c(C(C)=O)c(C)n2-c1ccccc1	-8.62%
C=CCn1c(SCC(=O)Nc2cc(C)on2)nc2sc(C)c(C)c2c1=O	-0.759%
CCOC(=O)C1=C(COC(=O)C2(C)CC2(Cl)Cl)NC(=O)NC1c1ccccc1 (centres unmarked)	-23.4%
O=S(=O)(NCc1nc(-c2ccccc2)no1)c1ccc(F)cc1	0.0586%
O=C(O)c1ccccc1O	23.8%
COC(=O)c1sccc1NC(=S)Nc1cccc(F)c1	10.7%
CS(=O)(=O)N(CC(=O)NC1CCCC1)C1CCCCC1	-2.14%
CCCC(=O)Nc1cccc(S(=O)(=O)N(C)c2ccccc2)c1	-12.3%
Cc1ccc(C)c(C(=O)CN2C(=O)CCC2=O)c1	5.72%
O=[N+]([O-])c1ccc(N2CCOCC2)cc1NCCCO	13%
CCN1CCN(C(=O)c2cc3c(=O)n(C)c4ccccc4c3n2C)CC1	-9.33%
Cc1cc(C)n(CC(C)(O)c2ccccc2)n1 (centres unmarked)	11.5%
O=C(Cn1cc(C(=O)c2ccccc2F)c2ccccc21)NCc1ccco1	9.98%
CCNc1nc(-c2cc3ccccc3o2)cs1	-2.5%
COc1c2c(nc3occc13)C(CCC(C)(C)O)(OC)C(O)CC2 (centres unmarked)	3.68%

SMILES	hERG current change (%, negative = inhibition) at 10uM
Cc1nc2ccccc2c(=O)n1-c1ccc(Cl)cc1Cl	-0.324%
O=C(Nc1ccc(C(=O)OC2CCCCC2)cc1)c1ccncc1	14.2%
O=C(Oc1cccc(Nc2ncnc3ccccc23)c1)c1ccccc1Cl	4.19%
CC1CN(C(=O)CCC(=O)NCc2ccc(F)cc2)c2ccccc2S1 (centres unmarked)	-30.3%
COC(=O)C1=NN(C(=O)c2ccc(Cl)cc2)C(O)(c2ccccc2)C1 (centres unmarked)	-11.6%
Cc1nc2scc(-c3cccs3)c2c(=O)n1N	-7.84%
COc1ccc(N2CCN(C(=O)c3ccccc3NC(=O)C3=C(C)OCCS3)CC2)cc1	3.16%
CCCCNC(=S)NNC(=O)C1=NN(c2cc(C)ccc2C)C(=O)CC1	17.2%
CCCc1cc(C(=O)Nc2cnn(Cc3ccc(F)cc3)c2)no1	5.95%
CC1CN(S(=O)(=O)c2ccc(C(=O)N(CCCN(C)C)c3nc4cc5c(cc4s3)OCCO5)cc2)CC(C)O1.Cl (centres unmarked)	-28.8%
C=CCOc1cccc(C2C(C(=O)c3ccc(C)o3)=C(O)C(=O)N2Cc2ccncc2)c1 (centres unmarked)	12.5%
O=C(CSc1ccccc1)N(c1ccc(Br)cc1)c1nccs1	10.8%
COc1cc(CCC(=O)N2CC(C)OC(C)C2)cc(OC)c1OC (centres unmarked)	14.1%
Cc1ccc2nc(SCC(=O)c3ccccc3)nc(=O)n2c1	-10.1%
CCOC(=O)c1sc2nc(SCC(=O)NCc3ccco3)n(Cc3ccccc3)c(=O)c2c1C	7.28%
CCn1c(N2CCN(CC(=O)c3c(C)n(C)c4ccc(OC)cc34)CC2)nc2c1c(=O)[nH]c(=O)n2C	3.19%
COc1ccc(C2/C(=C(/O)c3ccc(C)cc3)C(=O)C(=O)N2C)cc1 (centres unmarked)	-2.36%
COC(=O)c1ccc(CSc2ccc3nnc(-c4ccc(OC)c(OC)c4)n3n2)o1	-15.1%
COc1ccccc1NC(=O)CCc1nc2ccccc2s1	-3.1%
CC(C)OC(=O)c1nnc(-c2ccccc2)nc1OC(C)C	-14.6%
COc1ccc(S(=O)(=O)Cc2ccc(C(=O)N3CCN(c4ccccn4)CC3)o2)cc1	-27.9%
NC(=O)c1ccccc1NC(=O)CSc1cn[nH]n1	13.2%
COC(=O)c1onc(-c2ccccc2)c1C(=O)OC	10.3%

SMILES	hERG current change (%, negative = inhibition) at 10uM
CN1C(=O)C(=Cc2ccc(N3CCCCCC3)cc2)C(=O)N(C)C1=O	13.1%
CCN(CC)CCCC(C)NC(=O)c1c(NC(=O)c2ccccc2)sc2c1CCCC2.O=C(O)C(=O)O (centres unmarked)	-76.9%
COc1ccc(NC(=O)c2cc3ccccc3o2)cc1OC	-3.22%
N#Cc1nc(-c2ccco2)oc1NCc1ccc(F)cc1	-4.84%
CN1CCCN(Cc2ccccc2Br)CC1	9.59%
O=C(O)Cn1ccc2cc(S(=O)(=O)N3CCCCCC3)ccc21	21%
COc1ccc(S(=O)(=O)CCC(=O)Nc2c(C)cccc2C)cc1	23%
COc1ccc([N+](=O)[O-])cc1NC(=O)CS(=O)(=O)c1ccc(C)cc1	4.76%
Cc1cc(C(N)=O)c2ccccc2n1	19.4%
O=C(Cc1c(Cl)cccc1Cl)NCCc1ccc(Cl)cc1	-39.1%
C/C(=N\Nc1ccc2nncn2n1)c1cccs1	16%
COc1ccc(NC(=O)c2oc3ccccc3c2NC(=O)c2ccc3c(c2)OCO3)cc1	25%
COc1ccc(/C=C/C(=O)NC(=S)NNC(=O)c2cc(OC)c(OC)c(OC)c2)cc1	16.7%
COCCNC(=O)C(c1cccs1)N(C(=O)Cn1nnc2ccccc21)c1ccc2c(c1)OCO2 (centres unmarked)	-8.95%
CCCCOc1ccc(N2CC(C(=O)NCCc3ccc(OC)c(OC)c3)CC2=O)cc1 (centres unmarked)	3.49%
COc1ccc(C(=O)C2CCN(S(=O)(=O)c3ccc4c(c3)OCCO4)CC2)cc1	0.692%
CCn1c(SCC(=O)N2CCCC(C)C2)nnc1-c1ccc(S(=O)(=O)N2CCN(C)CC2)cc1 (centres unmarked)	-0.801%
CC(=O)c1c(N2CCOCC2)nc(=S)n(-c2ccc([N+](=O)[O-])cc2)c1C	-46.2%
C/C(=N\NC(=O)c1ccc(Br)cc1)C1C(=O)c2ccccc2C1=O	17.9%
Cc1ccc(S(=O)(=O)N(C)CC(=O)OCC(=O)NC(=O)NC(C)C)cc1	-12.1%
